Among all 310,000 compounds or so, about 2,200 (0.71%) showed an effect of 50% or more. The effect is printed as a negative number. Some of the results follow.

Sequence of human ether-à-go-go-related gene (hERG) potassium channel (Q12809 whole entry, looked up): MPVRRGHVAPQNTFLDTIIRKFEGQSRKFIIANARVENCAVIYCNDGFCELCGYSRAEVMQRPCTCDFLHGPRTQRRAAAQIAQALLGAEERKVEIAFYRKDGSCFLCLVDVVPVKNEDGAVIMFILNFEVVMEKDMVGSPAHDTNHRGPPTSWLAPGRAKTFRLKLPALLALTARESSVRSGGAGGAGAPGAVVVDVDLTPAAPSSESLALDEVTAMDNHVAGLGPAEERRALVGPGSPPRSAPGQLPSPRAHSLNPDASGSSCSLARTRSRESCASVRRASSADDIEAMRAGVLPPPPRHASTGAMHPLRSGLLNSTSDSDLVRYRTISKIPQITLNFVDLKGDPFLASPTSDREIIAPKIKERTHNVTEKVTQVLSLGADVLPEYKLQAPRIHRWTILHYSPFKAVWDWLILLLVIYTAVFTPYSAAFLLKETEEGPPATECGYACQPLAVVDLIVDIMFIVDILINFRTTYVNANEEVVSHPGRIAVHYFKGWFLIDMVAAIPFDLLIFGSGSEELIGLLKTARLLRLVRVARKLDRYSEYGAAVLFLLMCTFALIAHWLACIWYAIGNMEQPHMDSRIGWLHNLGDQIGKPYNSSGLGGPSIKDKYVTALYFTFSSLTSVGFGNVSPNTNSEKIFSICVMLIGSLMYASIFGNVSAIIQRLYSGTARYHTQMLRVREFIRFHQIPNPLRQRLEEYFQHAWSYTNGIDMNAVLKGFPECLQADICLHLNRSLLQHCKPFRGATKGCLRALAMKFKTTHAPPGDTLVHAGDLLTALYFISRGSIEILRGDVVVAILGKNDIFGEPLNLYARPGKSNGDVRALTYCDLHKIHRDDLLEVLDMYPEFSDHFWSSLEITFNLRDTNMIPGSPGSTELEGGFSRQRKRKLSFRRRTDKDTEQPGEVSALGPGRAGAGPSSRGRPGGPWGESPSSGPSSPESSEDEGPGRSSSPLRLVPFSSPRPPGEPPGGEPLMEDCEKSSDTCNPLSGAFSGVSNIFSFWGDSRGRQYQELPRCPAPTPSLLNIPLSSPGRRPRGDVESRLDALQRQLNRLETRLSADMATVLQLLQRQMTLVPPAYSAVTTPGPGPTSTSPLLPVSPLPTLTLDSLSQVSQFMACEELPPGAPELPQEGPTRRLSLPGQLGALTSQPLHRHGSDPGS

The assay addresses human ether-à-go-go-related gene (hERG) potassium channel (human, UniProt Q12809). Kind of assay: primary screen, population patch clamp on CHO cells stably expressing hERG.
Regarding `Fc1ccccc1CSc1nnc(-c2ccccc2)o1`, the “hERG current change (%, negative = inhibition) at 1uM” value came to 1.72%.

Take `CC(=O)/C(=N\Nc1cccc(Cl)c1)Sc1nnc(-c2ccccc2)n1-c1ccccc1`: the “hERG current change (%, negative = inhibition) at 1uM” value is 13.7%. In the case of `COc1cccc(/C=N/Nc2ccc([N+](=O)[O-])cn2)c1O`, the “hERG current change (%, negative = inhibition) at 1uM” value was 9.06%. For `CC(=O)c1cccc(NC(=O)Cn2cnc(S(=O)(=O)N3CCCC3)c2)c1`, the “hERG current change (%, negative = inhibition) at 1uM” value is on record as 15.8%. To `CCc1noc(C)c1C(=O)OCC(=O)NCc1ccccc1` belongs 13.4%; to `COc1ccc2[nH]c(=O)c(CN(C(=O)c3ccncc3)C(C)C)cc2c1`, -1.97%; to `CCOC(=O)c1cnn(-c2nc(OCC)cc(OCC)n2)c1C`, 11.1%. Take `CSc1cccc(CN2CCN(Cc3ccc(F)c(F)c3)C(CCO)C2)c1` (stereo not shown): the “hERG current change (%, negative = inhibition) at 1uM” value is recorded as -14.6%.

Consider `CN1CCN(Cc2ccc(Br)s2)CC1`, for which the “hERG current change (%, negative = inhibition) at 1uM” value stood at 13.8%.

Turning to `Cc1ccc(OCCCN2CCOCC2)cc1`, the “hERG current change (%, negative = inhibition) at 1uM” value is 14.8%. As for `COc1cccc(C(C(=O)NCc2ccco2)N(Cc2ccco2)C(=O)Cn2nnc3ccccc32)c1` (stereo not shown), the figure is 11.6%; as for `Cc1ccc(C(CC(=O)O)NC(=O)CN2C(=O)c3ccccc3C2=O)cc1` (stereo not shown), 14%; as for `N#CCSc1nccc(/C=C/c2ccccc2)n1`, 21.8%. With `N#CC1=C2N=C(N)c3ccccc3N2C2=C(C(=O)CCC2)C1c1cccc(Cl)c1` (stereo not shown), the “hERG current change (%, negative = inhibition) at 1uM” value came out at 10.6%. As for `CN(C)CCCN1C(=O)C(=O)/C(=C(/O)c2ccncc2)C1c1cccc(Br)c1` (stereo not shown), the figure is 13.6%; as for `COc1cc2c(cc1OC)CN(c1ccc([N+](=O)[O-])c(C(F)(F)F)c1)CC2`, -5.09%.

Regarding `C=CCC(CC=C)(C(=O)O)c1ccccc1`, the “hERG current change (%, negative = inhibition) at 1uM” value stood at 2.95%. As for `COc1ccc(C(=O)COC(=O)c2cc3ccccc3oc2=O)c(OC)c1`, the figure is 7.12%. As for `CCC1CCCCN1CC(=O)Nc1ccc2c(c1)OCCO2` (stereo not shown), the figure is 12.4%. `O=C(NCC(=O)N1CCCCCCC1)c1ccco1`: the “hERG current change (%, negative = inhibition) at 1uM” value came to 11.6%.

As to `OC(CN1CCOCC1)(c1ccccc1)c1ccccn1` (stereo not shown), the “hERG current change (%, negative = inhibition) at 1uM” value is 12.7%.

Turning to `CN1CCCC(OC(=O)COc2ccccc2)C1.Cl` (stereo not shown), the “hERG current change (%, negative = inhibition) at 1uM” value worked out at 8.65%. As for `Cc1ccc(NC(=O)CSc2nnc(Cc3cccn3C)n2-c2ccc(F)cc2)c(C)c1`, the figure is 4.05%. To `Cc1cccc2[nH]c(SCC(=O)O)nc12` belongs 15%; to `COCCOC(=O)/C(=C/c1ccc(OC(=O)c2ccccc2)cc1)C(C)=O`, 9.15%. As for `COc1cc(-c2nc3ccccn3c2N)ccc1O`, the figure is 13.3%; as for `O=C(O)/C=C/c1coc2ccc(F)cc2c1=O`, 6.71%; as for `Cc1cccc2c1nc(-c1ccccc1)n1cnnc21`, -6.84%. As to `O=C(Cc1nc2ccccc2[nH]1)NCc1ccco1`, the “hERG current change (%, negative = inhibition) at 1uM” value amounted to 13.2%. On to `CCOc1ccc(NC(=O)C2CCCN(c3c(CC)c(C)nc4ncnn34)C2)cc1` (stereo not shown), for which the “hERG current change (%, negative = inhibition) at 1uM” value was -8.48%. As for `COC(=O)CC1=C(C(=O)OC)C(c2ccc3c(c2)OCO3)C(C#N)=C(N)O1` (stereo not shown), the figure is 4.77%. To `C/C(Cn1nnc([N+](=O)[O-])n1)=N\NC(=O)c1ccc(C)cc1` belongs 2.75%; to `CC(=O)c1c(C)[nH]c(C(=O)OC2CCOC2=O)c1C` (stereo not shown), 9.14%; to `O=C(Cn1ccccc1=O)Nc1ccc(Cl)c(S(=O)(=O)N2CCCCC2)c1`, -21.2%. Turning to `COC(=O)c1ccccc1NC(=O)CC(NCc1ccccc1)C(=O)O` (stereo not shown), the “hERG current change (%, negative = inhibition) at 1uM” value is listed as -20%. As for `Cc1nnc(C)n1/N=C/c1cc2ccccc2nc1Cl`, the “hERG current change (%, negative = inhibition) at 1uM” value is reported as 5.71%. In the case of `c1ccc(CN2CCN(c3nc(-c4ccccc4)nc4ccccc34)CC2)cc1`, the “hERG current change (%, negative = inhibition) at 1uM” value amounted to 12.2%.

In the case of `COc1cc(CCC(=O)OCC(=O)Nc2ncc(Cl)cc2Cl)cc(OC)c1OC`, the “hERG current change (%, negative = inhibition) at 1uM” value is -5.63%.

With `CCC(C)C(NC(=O)c1ccccc1NC(=O)c1ccco1)C(=O)NC1CCCCC1` (stereo not shown), the “hERG current change (%, negative = inhibition) at 1uM” value was 9.74%. In the case of `Clc1ccccc1C1NCc2ccccc2-n2cccc21` (stereo not shown), the “hERG current change (%, negative = inhibition) at 1uM” value was 9.74%. To `OC1CC(c2ccco2)NC2(CCCCC2)C1` (stereo not shown) belongs 6.4%; to `COC(=O)CCCC(=O)N1CCC(n2nccc2NC(=O)CCOc2ccccc2)CC1`, 11.3%. As for `CN(Cc1ccccc1)C(=O)CSc1cc(=O)n(C)c2ccccc12`, the “hERG current change (%, negative = inhibition) at 1uM” value came to 1.88%. To `O=C(Nc1nccs1)C1CCN(S(=O)(=O)c2ccc(Cl)c(C(F)(F)F)c2)CC1` belongs 8.21%; to `O=C(NCc1cccs1)C(=O)c1c[nH]c2ccccc12`, 4.18%; to `O=C(Cc1ccc(Br)cc1)NCc1ccccc1`, 20.8%.

The record behind these values is paper PMC4336329 (PLoS ONE, 2015).
